# Assay results: the supplement of paper PMC11417369
# This is one part of the list.
# Test system: PfHDP1 homeodomain (GST-tagged)
# Assay: gcPBM binding intensity (ln(normalized median fluorescence intensity)); higher = stronger DNA binding
# Method in brief: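 An Agilent 4 × 180k array carrying primer-extended double-stranded 36-bp intergenic genomic probes and negative controls received GST-tagged P. falciparum DNA-binding domains expressed in E. coli, about 25 μg on average, for 1 h. The binding buffer contained 1× PBS, 1% milk, 0.2 mg/ml BSA, 0.5% salmon testes DNA and 0.03% Triton X-100. Binding intensity is the top Masliner-normalised natural-log median intensity across replicate spots of either probe orientation, read after Alexa488 anti-GST antibody staining and a 488 nm scan.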
row,Sequence,gcPBM binding intensity (ln)
1,ATATAAGTACATATAACACACATATATTATAAGTAT [CACACA_site2647],6.52
2,TTTGCCATAAAACACACACACATGTAAACCCCCTTT [CACACA_site1646],7.33
3,TATACTCAGAAACACACACACACACCCAAAAAAAAA [CACACA_site4434],6.8
4,TACGCGAAATGAATATGTACATATATGAGGGCATAT [XGTACX_site4293],6.92
5,TTTATATAAGGACATGCATGCTATTATTAAATATAT [TGCATGCA_site1011],6.47
6,TAATATATAAATATATGTACATAATAAATAGGATAT [XGTACX_site3661],7.06
7,ACTTCATAGGTTACCTGTACATATAAGGAGTTATCA [XGTACX_site4110],6.6
8,ATGTAAGTATAAAATGTGCGCATTGGGAATGAGGAC,8.29
9,ACTATTTAAAAATATGGTACACGAAATTCAAGAGAA [XGTACX_site5903],6.9
10,ATGAATTAACCTAATCGTACAATAAATATTATTATA [XGTACX_site596],6.11
11,ATATATATATATGTATGTATATATATATGTTTGATT [XGTACX_negctrl_site62],8.94
12,TTGTTTATGTGAGAAGTGCATTTTTTCGTTCATGTA,7.93
13,AAGTTTTATATTTATTAAATTTTTTTTTTTCCTTTT [XGTACX_negctrl_site184],5.85
14,ATATGTTTAAAAATATGTACGTATTATATATTCTAT [XGTACX_site1358],6.38
15,TTTTTTATTTTGTTGAAGCAATGAAAATGAATGAAA [TGCATGCA_negctrl_site495],6.6
16,TCTTTTTTTTTTTTTTTTTTTTTTTTTTTTTTTTTT [GTGCAC_negctrl_site18],7.39
17,ATAAAACCAACATAGAGTACAGATCGACTATGTTTC [XGTACX_site4329],6.25
18,TTTTCTTTTTAAATTACACACACATATATATATGTA [CACACA_site9172],6.99
19,ATTTTAATGACATATACACACAAAGGTTCATAACAA [CACACA_site5664],6.51
20,TGTAGATATTATATATGTACGCATATGAAATATATA [XGTACX_site1586],6.35
21,GTAATATCAATATAAAGTACACACTATAGTATGTAT [XGTACX_site4714],6.4
22,TAATTATATAAATATTGTACAAAAAAAATATATATA [XGTACX_site3137],6.8

row,Sequence,gcPBM binding intensity (ln)
1,AAAATATATAATATAACACACATATATTCTATATGG [CACACA_site4044],6.37
2,TTCAAAATATATATTTGTACATATAGGATCTTTTTC [XGTACX_site4500],6.36
3,ATATATACATATAATTGTACTTGTGTTGTTTTTCTT [XGTACX_site1870],6.69
4,TTAACGCTTATTTTTTGTACTTATTTTATTTTAAAT [XGTACX_site3977],6.89
5,ACTCTATAATAAAATACACACAAGACTATCTAATAT [CACACA_site1796],6.68
6,CAACATTAATATAAAGCACACATATATATAATATAT [CACACA_site8064],6.39
7,AATATAAACCCAAACACACACATATATATATATATA [CACACA_site268],9.39
8,TTTTTTTTTTTGAGGAGGACACAAAAATATGCTACC [XGTACX_site756],6.23
9,TTTTATTTATAATATATACACACTAACATTATTTAT [CACACA_site1284],6.34
10,GAATATTTATCATGGGGTACCTTAAAAAAGGGAAAA [XGTACX_site298],6.04
11,ATATCTTAAATTATTTGTACATATATATATATATAT [XGTACX_site8034],9.46
12,AATATAAAAATATAAAAACACACGTAAAAAAATTTA [CACACA_site3399],6.65
13,TATATTCTTTTAAACAGTACACACACACATATATAT [XGTACX_site1701],7.27
14,AAAAAAATTAAAAATAAAGAAAAAAAAAAAAAAAAA [GTGCAC_negctrl_site401],6.07
15,TTAATACACCATAAAAGTACATAATATGATATTTAA [XGTACX_site8561],6.29
16,ATATGTTTGATTTTTTTTTTTTTTTTTTTTATGTGT [CACACA_negctrl_site1001],6.37
17,AAAAAAAAAATTAAAAGTACAGAAAATAAATAAATA [XGTACX_site7470],6.08
18,AAGAAAATAAATAATACACACAAGGATTTGTAAATA [CACACA_site690],6.36
19,CTTTTTTTTTAAAAATGTACACATTTTTGAAAATAC [XGTACX_site3127],6.16
20,TTTTTCTTTTTTTTTTCCTTTATCACATAAGAAAAA [CACACA_negctrl_site192],6.33
21,AAGATATGAGGGAATACACACATATATATATATATA [CACACA_site1581],9.38
22,AAAATGAAGAAGTGCACACATATATATATTTATATA [CACACA_site507],9.11

row,Sequence,gcPBM binding intensity (ln)
1,TTTTCCCTTACAGAAAAAAAAAAATTCCTAACCCCG [CACACA_negctrl_site650],6.63
2,TTATATATTTATAATCGTACAATAATTAACGTAAAA [XGTACX_site3206],6.54
3,ATATATTTTAGGAGAGTGCATTTAATATTATTTAAT [GTGCAC_site9444],8.17
4,CATATAATAAATAATACACACATATTGTAAATATAT [CACACA_site5734],6.46
5,TAAAATAAAATAAAATGTACTTTCCTTTTGATAATA [XGTACX_site6288],5.96
6,AATTGAGTATCGTGAGTGCAAAACGTGGTTCAAAGA,10.1
7,GTAATGAACAAACACAAAAAAAAAAAAAAAATAATA [TGCATGCA_negctrl_site344],6.1
8,GACATATTATTCATGTGTACATATTATATGTATATA [XGTACX_site3442],6.51
9,AAAAAAGAAGACATCTAAGTAATAGTAACAATGTAT [CACACA_negctrl_site1660],6.43
10,TATAAATATACACCCACACACATATATAAATAAATA [CACACA_site7717],7.12
11,AAGAATTTAGAAGGCATGCACTTAAACATGCATATA,7.52
12,TATATGGGATATATGTGTACATATAAAATATGTATC [XGTACX_site3365],6.37
13,TTTTTTTTTTTTTTTACACACATTTGAATAACTTTA [CACACA_site6810],6.62
14,CTTAATATGAATAAAACACACATATATAATTTGTAA [CACACA_site5120],6.18
15,AAAAGAATTAAAAAATGTACATATAATATATATATA [XGTACX_site6721],8.21
16,ATAACTATATACATCTGTACATAATACATAGATAAA [XGTACX_site2795],6.52
17,ATTTGTATATAATATATATAATTTTTTTTTTTTGTT [XGTACX_negctrl_site425],6.16
18,ATATCTTCACTTATATGTACTTACATTTTTTTTTTT [XGTACX_site8696],6.74
19,ATTTGAAAAAATACTACACACCATATTGTTAATTTT [CACACA_site3829],6.3
20,AAGATTCATATAAAAAGTACAAAAAGAAAAAAATAA [XGTACX_site6033],6.48
21,TATACACATAGACACACACACATACACGCACATACA [CACACA_site6908],7.39
22,TCTAAAAAAATTATATCACACATTATAAAGCATATT [CACACA_site4885],6.25

row,Sequence,gcPBM binding intensity (ln)
1,TAATAAGTATCAAAATGTACATGACAAAAATAATTT [XGTACX_site8961],6.75
2,ATAATTTTATATAAATGTACATACATTTTTATTATA [XGTACX_site7368],6.36
3,ATAATATATGCAAAAACATGCACATAATATGTAAAA [TGCATGCA_site742],9.97
4,ATATATATGTATATATGTACATATATGTATATATAT [XGTACX_site4772],6.94
5,ATTAAATCATATGAATGTACGGATATATATATTTCC [XGTACX_site8650],6.6
6,TGATAAATTTTCACATGTACATATATAGAATAACCT [XGTACX_site2860],6.98
7,CATAATATATATTGAGCATGCTACTATTGTTAGAAA [TGCATGCA_site740],7.65
8,AAAAAAAAAAACTACACACATACAAATATTTATATA [CACACA_site2574],6.45
9,ACATATAAGATATATACACACATATAAATACATTAA [CACACA_site7763],6.46
10,CAAATAAAAAAAGTAGCACACATGAATAAAATATAT [CACACA_site3130],7.02
11,ATACATACATATGTATGTACGTATGTATGTATGTAT [XGTACX_site3853],6.39
12,AGAATAGTGGAAAACACACACGTTTGAGATATGGAC [CACACA_site4782],6.99
13,TTATAAAAAGAACAATTAAAAAAAAATAAAATAAAA [XGTACX_negctrl_site398],6.48
14,TTTTTATGTTCTATATATATATATATATATATATAT [GTGCAC_negctrl_site306],9.4
15,GCACGTGTGATTAGATGTACATAACATGTATATGTC [XGTACX_site4632],6.37
16,CACCCACCCACATACACACACATACACATATATATA [CACACA_site1722],7.49
17,ATATCTCAACATATCACACATATATATATATAATAT [CACACA_site5018],6.97
18,AATAAATATAAATAAATAAATATATATATATATTTG [CACACA_negctrl_site1486],6.25
19,CATCCACATAGATGTACACACATATATATATATATA [CACACA_site5616],9.3
20,ATATGTATATTTTTGATGTGCTTTTATTTGGTTATT [CACACA_negctrl_site626],6.59
21,AAAAAAAATACATACACACACACACGCACATATATA [CACACA_site7645],7.45
22,ATTTTTTTATAATCAACCCATTTCCTACATTTTTAT [CACACA_negctrl_site1237],6.84
